# According to ChEMBL document CHEMBL4888484, “Replenishing the malaria drug discovery pipeline: Screening and hit evaluation of the MMV Hit Generation Library 1 (HGL1) against asexual blood stage Plasmodium falciparum ,using a nano luciferase reporter read-out” (2022):
# The whole screen tested about 150,000 compounds, of which about 540 (0.36%) showed an effect of 50% or more. This is one part of the list.
# Test system: Plasmodium falciparum
# Experiment: Primary screen in NF54 nanoGlo assay, in single point, at 2uM, 72h; a lower Z score goes with more inhibition
# Type: functional, Erythrocyte
# Settings: timepoint 72 hour
SMILES,% Inhibition [%],Z score
CN(Cc1ccc2c(c1)CN(C(=O)c1ccc(Oc3ccccc3)o1)CCO2)Cc1cc(C2CC2)[nH]n1,-5,0.97
O=C(Cc1cccs1)N1CC[C@H](CCOc2ccccc2)C1,-12,2.3
COc1ccc(N2C[S@@+]([O-])CC2=O)cc1,-7,0.96
O=C(c1cnc2ccccc2n1)N1CCN(c2cccc(C(F)(F)F)c2)CC1,6,-1.16
CCCCN1C(=O)CC2(Oc3ccccc3O2)C1=O,0,-0.02
Cc1nc(C(=O)NCCc2nc3ccccc3[nH]2)c(C)s1,-7,0.88
CC(C)(O)CN1CCN(C(=O)c2cc3c([nH]2)CCCC3)CC1,2,-0.41
Cc1cccc(-c2nocc2CCC(=O)N2CCN(c3ccccn3)CC2)c1,-14,1.92
N[C@H]1CCN(c2ncncc2-c2nc(-c3ccsc3)no2)C1,-7,0.83
O=C(NCCC(c1ccccc1)c1ccccc1)c1cc(=O)c(OCc2ccccc2)c[nH]1,-4,0.56
Cc1nnc(-c2ccccc2-c2cc(F)cc3c2O[C@@H](CN)C3)o1,0,0.08
CCn1nc(C)c(CNc2cncc(-c3cccs3)n2)n1,17,-2.16
OCc1cccc(NCc2cnc(-c3cccs3)s2)c1,0,-0.06
CC1(C#N)CCN(C(=O)Nc2cccc(CCC(F)(F)F)c2)CC1,8,-1.08
CCC1CN(C(=O)c2cnc3c(c2)NC(=O)CO3)CC(CC)O1 (centres undefined),-10,1.64
CN(C(=O)C1CCS(=O)(=O)CC1)c1cc(Cl)cc(Cl)c1,7,-0.82
Cc1cc(C)nc(CCNc2nc(C)cc(C3CCC3)n2)n1,-5,0.58
O=C(CNc1ccccc1Oc1ncc(Cl)cc1Cl)N1CCOCC1,-8,1.35
O=C1c2ccccc2[C@H]2N1CCN2c1ccccc1,38,-4.9
CC(C)(C)OC(=O)NCc1c(O)ccc2ncccc12,5,-1.02
CCOCCC(=O)NCC1(CC)CCCC1,-4,0.54
CCOc1ccccc1C(=O)N1C[C@H]2CN(C(=O)C(C)C)C[C@@]2(CO)C1,-9,1.21

SMILES,% Inhibition [%],Z score
Cc1c(C2=NO[C@H]3C(=O)N(c4ccc5ccccc5c4)C(=O)[C@@H]23)cnn1C,50,-5.99
Cc1ccc(-n2nc(C)c3c(N)c4c(nc32)CCCC4=O)cc1,-1,0.22
CC1CCCN(c2nc3nonc3nc2N2CCCC(C)C2)C1 (centres undefined),8,-0.91
CCN1CCCN(CCOc2ccccc2)CC1,-8,1.57
Nc1ncc(CN2CCC(Cc3nnc(CO)n3-c3ccccc3)CC2)cn1,1,-0.13
O=C(CC[C@@H]1CCCN2CCCC[C@H]12)NCc1ccc(C(=O)O)s1,6,-0.56
CC(C)C[C@H]1NC(=O)C(c2cccs2)NC1=O (some centres undefined),-19,2.53
Cc1oc(C#N)cc1C(=O)NC(C)C1CCN(Cc2ccccc2)C1 (centres undefined),-17,1.71
CCN(Cc1ncnn1C)C1CCCCC1C (centres undefined),-7,1.37
O=S(=O)(c1cccnc1)N1CC[C@H](c2nc(-c3ccccc3)no2)C1,-11,1.44
O=C1[C@@H]2CCCN2C(=O)N1Cc1cc(F)ccc1Br,3,-0.6
Cc1cc(C)n(-c2ncc(NC(=O)c3ccccc3Cl)cn2)n1,-8,1.18
Cc1cccc(NC(=O)[C@@H](C#N)C(=O)COc2cccc(C)c2)c1,-6,1.17
NC(=O)c1ccc(-c2nc3c(c(N4CCc5ncccc5C4)n2)CCNC3)cc1,-12,1.88
COc1ccc(CCN2C(=O)N[C@@H](CC(=O)N3CCOCC3)C2=O)cc1,-9,1.38
CN(Cc1cccc(F)c1)C(=O)c1cc(S(=O)(=O)N2CCOCC2)ccc1N1CCCC1,-5,0.75
O=c1n(CCOc2ccccc2)nc2c(S(=O)(=O)N3CCCC3)cccn12,-11,1.73
O=S(=O)(N=C1CCCCCCN1)c1cc(Br)ccc1Br,2,-0.38
Cc1ncnc(N(C)C[C@H](C)c2nccs2)c1C,26,-3.79
COC(=O)CN(CCOC1CCCCC1C)Cc1cnn(C)c1 (centres undefined),-3,0.27
CC(C)c1nnnn1CC(=O)N1CCOc2c(F)ccc(F)c21,-7,1.23
COC1CCC2OCCN(C(=O)c3ccccc3CN3CCOCC3)C2C1 (centres undefined),-9,1

SMILES,% Inhibition [%],Z score
O=C(NC1CC1)N1CCN(C(c2ccccc2)c2ccccc2)CC1,0,-0.03
Cc1nc(-c2cccc(C(=O)N3C[C@H]4CC[C@@H](C3)[C@H]4O)c2)nn1C,10,-1.84
CC(C)[C@H](NCc1cnn(C(C)C)c1)C1(CO)CCCC1,-7,0.98
CCn1c(CO)nnc1[C@H]1C[C@@H](NS(=O)(=O)c2cc(C)ccc2OC)C1,-8,0.93
Cc1cccc(N(C)S(=O)(=O)c2c(C(=O)N3CCOCC3)c(C)n(C)c2C)c1,-11,2.19
CCc1cc(C(=O)N2CCC[C@@H]2C(=O)O)sc1C,-5,0.68
COC[C@H]1CCN1C(=O)c1nnn(C)c1C,0,-0.01
COC(=O)c1ccccc1NC(=O)N1CCC2(CCC(=O)N(C)CC2)CC1,-12,1.43
CCOC(=O)N1CCN([C@@H](CC)CO)CC1,1,-0.16
O=C(NCCc1cn[nH]c1)Nc1ccc(C2CCC2)cn1,-6,1.13
Cc1ccsc1[C@@H](O)CNC(=O)NC1CCCCC1,-13,2.17
CN(C)C(=O)N(CCN1CCCCC1)[C@H]1CCN(C(=O)CCC2CCCCC2)C1,-5,0.68
COc1cc(Cl)c(Cl)cc1NC(=O)N1CCOCC2(CCC2)C1,-8,0.88
Cc1nc2cc(NC(=O)c3ccc4ccccc4n3)ccc2o1,-13,2.4
COCCn1cnnc1CNC(=O)N1CCCN(c2ccccc2C)CC1,-4,0.64
CC(C)c1nnc(-c2ccccc2)c(N2CCOCC2)n1,-11,1.26
O=C(Cc1cccs1)NC1CC2CCC1C2 (centres undefined),-3,0.4
C[C@@H](Cn1cncn1)NC(=O)Nc1ccc(F)cc1OC(F)F,-10,1.69
CC(C(=O)N1CC(=O)Nc2ccccc21)N1CC(C)(C)C1C1CCCO1 (centres undefined),10,-1.26
CN(C)C(=O)c1nc2ccc(Cl)cn2c1CN1CCN(C)[C@H](c2ccccc2)C1,-3,0.61
COc1cccc(Cn2cc(-c3ccc(C#CCO)cc3)nn2)c1,-4,0.88
N#Cc1cccc(OCCN2CCC(c3ccnnc3)CC2)c1,-12,1.35

SMILES,% Inhibition [%],Z score
CCc1ccc(C(=O)N(CCCOC)Cc2c(C)nn(-c3cccc(F)c3)c2N2CCN(C)CC2)cc1,2,-0.24
COC(=O)CCNC(=O)C1CCCC(C(=O)NCCC(=O)OC)C1 (centres undefined),9,-1.26
Cc1ccc(CN2C(=O)C3CCCCC3C2=O)cc1S(=O)(=O)Nc1cccnc1 (centres undefined),-3,0.56
COc1ccc(C(=O)N2C[C@@H]3CN(C(C)=O)CC[C@]3(CO)C2)c(OC)c1,-5,0.76
COCC1CCN(S(=O)(=O)N(C)Cc2ccnc(C)c2)CC1,-3,0.43
CC[C@@H](C(=O)N1CCN(c2nc(CN3CCN(c4ccccc4F)CC3)cc(=O)[nH]2)CC1)c1ccccc1,8,-0.97
COCCn1cnnc1CNc1nnc(-c2ccccc2)s1,1,-0.21
CS(=O)(=O)c1cccc(Br)c1N1CC(CO)C1,-11,1.95
Cc1nsc(NC[C@@H]2CC[C@H](C)N2C)n1,-6,0.92
C[C@@]1(C(N)=O)CCCCN1Cc1ccc2cn[nH]c2c1,-2,0.23
CN(Cc1ccco1)C(=O)Cn1ccc(=O)n(C)c1=O,-4,0.84
CC(C)(O)C#Cc1ccc(-c2c(-c3ccccc3)ncn2CC(N)=O)s1,-1,0.1
CCOC1CC(NC(=O)NCc2nc(C3CC3)no2)C12CCCC2 (centres undefined),-10,0.82
Cc1ccc(-c2noc(-c3ccc(N4CCCCC4)nc3)n2)cc1,0,0.01
Cn1nccc1-c1csc(N[C@H]2CCOc3ccccc32)n1,-7,0.85
O=C(CC1=CCCCC1)N1CCCCO1,-2,0.25
COc1ccccc1NC(=O)c1cc(S(=O)(=O)N2CCCC2)cs1,-2,0.29
Cc1cn(CCC2OCCO2)nc1-c1ccccc1,2,-0.2
COc1ccc2cc(C(=O)NCC(=O)N3CCCC3)n(C)c2c1,14,-1.86
Cc1nc2[nH]nc(N)c2c(C)c1-c1ccnc2c1ccn2C,-1,0.08
Cc1cnn(C2CCCC2)c1NC(=O)N1CCS(=O)(=O)CC1,-18,1.9
